# Out of some 39,000 compounds screened, about 220 (0.56%) showed activity. The list shows a part of the results.
# Test system: Escherichia coli K-12 BW25113
# Experiment: relative growth (OD600 normalised to plate interquartile mean) (fraction); higher = less growth inhibition, active = 0.2 or less
# Conditions: 50 µM; LB; incubation time: overnight (16-24 h)
# 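Further: static incubation at 37 °C against the wild-type strain, values averaged over two biological replicates.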
row,Structure (SMILES),relative growth
1,COc1ccc(CN(C)C[C@@H]2Oc3c(NS(=O)(=O)c4c(C)noc4C)cccc3C(=O)N([C@H](C)CO)C[C@@H]2C)cc1,inactive: 0.991
2,CN(C)CCCNC(=O)C[C@H]1CC[C@@H]2[C@H](COc3ccc(NS(C)(=O)=O)cc3C(=O)N2C)O1,inactive: 1
3,COCC#Cc1ccc2c(c1)O[C@H](CN(C)C(=O)C1CCOCC1)[C@@H](C)CN([C@H](C)CO)S2(=O)=O,inactive: 0.957
4,CCCCOC(=O)CSc1n[nH]c(=O)[nH]c1=O,inactive: 1.02
5,C[C@@H]1CN([C@H](C)CO)C(=O)c2cc(NC(=O)Cc3ccccc3)ccc2O[C@@H](C)CCCCO[C@@H]1CN(C)S(=O)(=O)c1ccc(F)cc1,inactive: 1.04
6,Cc1noc(C)c1NC(=O)Nc1ccc2c(c1)C(=O)N([C@H](C)CO)C[C@H](C)[C@H](CN(C)Cc1ccc(C(F)(F)F)cc1)OCCCC[C@H](C)O2,inactive: 0.994
7,Cc1cc(=O)nc(SCC(N)=O)[nH]1,inactive: 1.01
8,CN1CCN(C(=O)C[C@H]2CC[C@@H]3[C@H](COC[C@@H](O)CN3C(=O)C3CCCC3)O2)CC1,inactive: 1.01
9,CC(=O)N[C@@H]1[C@@H](Oc2ccc(C(C)=O)cc2)O[C@H](CO)[C@H](O)[C@@H]1O,inactive: 1.02
10,COc1ccc(S(=O)(=O)N(C)C[C@@H]2Oc3ccc(NS(C)(=O)=O)cc3C(=O)N([C@H](C)CO)C[C@@H]2C)cc1,inactive: 0.978
11,COC(=O)[C@H](Cc1ccccc1)N1CC2=C[C@@H]([C@@H](O)CCn3cc(-c4ccc(C(=O)NO)s4)nn3)n3c(=O)n(C)c(=O)n3[C@@H]2[C@@H](C2CC2)O1,inactive: 0.992
12,C[C@H]1CN([C@@H](C)CO)S(=O)(=O)c2ccc(C#CC3(O)CCCC3)cc2O[C@H]1CN(C)C(=O)Nc1cccc(F)c1,inactive: 1
13,C[C@@H]1CN([C@H](C)CO)S(=O)(=O)c2ccc(C#Cc3ccccc3)cc2O[C@@H]1CN(C)C(=O)CN(C)C,inactive: 0.947
14,Cc1cc(C)c2nc(-c3ccccn3)cc(C(=O)Nc3ccc(S(=O)(=O)Nc4onc(C)c4C)cc3)c2c1,inactive: 0.929
15,C[C@@H]1CN([C@@H](C)CO)C(=O)Cc2cc(N(C)C)ccc2O[C@H]1CN(C)C(=O)Nc1ccc2c(c1)OCO2,inactive: 1.01
16,C[C@@H]1CN([C@H](C)CO)C(=O)c2cc(NC(=O)NC3CCCCC3)ccc2O[C@@H](C)CCCCO[C@H]1CN(C)Cc1ccc2c(c1)OCO2,inactive: 0.967
17,CCCNC(=O)Nc1ccc2c(c1)OC[C@@H](C)N(Cc1ccc(-c3ccccn3)cc1)C[C@H](C)[C@@H](OC)CN(C)C2=O,inactive: 0.985
18,COc1ccc(CN(C)C[C@@H]2OCCCC[C@H](C)Oc3ccc(NC(=O)Cc4ccccc4)cc3C(=O)N([C@H](C)CO)C[C@H]2C)cc1,inactive: 0.976
19,C[C@H](CO)N1C[C@H](C)[C@@H](CN(C)C(=O)c2ccncc2)Oc2cc(C#Cc3ccncc3)ccc2S1(=O)=O,inactive: 0.956
20,Cc1ccc(S(=O)(=O)N(C)C[C@@H]2OCCCC[C@@H](C)Oc3ccc(NC(=O)Nc4ccccc4)cc3C(=O)N([C@H](C)CO)C[C@@H]2C)cc1,inactive: 0.988

row,Structure (SMILES),relative growth
1,C[C@H]1CN([C@@H](C)CO)C(=O)c2cc(NC(=O)Nc3ccccc3)ccc2O[C@H]1CN(C)CC1CCCCC1,inactive: 0.986
2,COc1ccc(NC(=O)Nc2ccc3c(c2)C(=O)N([C@@H](C)CO)C[C@H](C)[C@H](CN(C)C(=O)Nc2ccc(C(F)(F)F)cc2)O3)cc1,inactive: 1.02
3,C[C@H]1CN([C@@H](C)CO)C(=O)c2cc(NC(=O)CCN3CCOCC3)ccc2O[C@@H]1CN(C)C(=O)Nc1ccc2c(c1)OCO2,inactive: 1.02
4,CCN(CC)CCCn1c(/C=C/c2ccc(O)c(OC)c2)cc(/C=C/c2ccc(O)c(OC)c2)nc1=S,inactive: 1.01
5,COc1cccc(NC(=O)N[C@H]2C=C[C@H](CC(=O)N3CCOCC3)O[C@@H]2CO)c1,inactive: 0.917
6,COc1ccc(CN(C)C[C@@H]2OCCCC[C@H](C)Oc3ccc(NS(=O)(=O)c4ccccc4)cc3C(=O)N([C@@H](C)CO)C[C@H]2C)cc1,inactive: 1.03
7,C[C@H](CO)N1C[C@H](C)[C@@H](CN(C)CC2CC2)OCCCC[C@H](C)Oc2ccc(NC(=O)CCCCCC(=O)Nc3ccccc3N)cc2C1=O,inactive: 0.979
8,C[C@@H]1CN([C@H](C)CO)C(=O)Cc2cc(NC(=O)C3CC3)ccc2O[C@@H]1CN(C)S(=O)(=O)c1cccs1,inactive: 0.995
9,Cn1c(=O)c2c(ncn2CCO)n(C)c1=O,inactive: 0.973
10,CC(C)NC(=O)Nc1ccc2c(c1)CC(=O)N([C@@H](C)CO)C[C@H](C)[C@@H](CN(C)S(=O)(=O)c1ccc(Cl)cc1)O2,inactive: 1.01
11,CC(C)NC(=O)N(C)C[C@H]1Oc2ccc(NC(=O)CCCN(C)C)cc2C(=O)N([C@H](C)CO)C[C@H]1C,inactive: 0.999
12,CN1CCN(CCO)C(=O)C12CCN(S(=O)(=O)C1CC1)CC2,inactive: 1
13,CN1C(=O)c2cc(NS(=O)(=O)c3cccc(F)c3)ccc2OC[C@@H]2O[C@H](CC(=O)NCCN3CCCCC3)CC[C@H]21,inactive: 0.982
14,Cc1ccc(S(=O)(=O)Nc2ccc3c(c2)CC(=O)N([C@@H](C)CO)C[C@@H](C)[C@@H](CN(C)Cc2ccncc2)O3)cc1,inactive: 1
15,CCCCCCCC/C=C\CCCCCCCC(N)=O,inactive: 0.861
16,CNC(=O)C[C@@H]1CC[C@H]2[C@@H](COC[C@@H](O)CN2C(=O)Nc2ccc3c(c2)OCO3)O1,inactive: 0.996
17,C[C@@H]1CN([C@@H](C)CO)C(=O)c2cc(NS(=O)(=O)c3ccc(Cl)cc3)ccc2O[C@@H](C)CCCCO[C@@H]1CN(C)Cc1ccc(C(F)(F)F)cc1,inactive: 1.03
18,C[C@@H]1CN([C@@H](C)CO)C(=O)c2cc(-c3cccnc3)cnc2O[C@H]1CN(C)Cc1ccc(Oc2ccccc2)cc1,inactive: 1.01
19,Cn1c(=O)[nH]c(=O)c2c(=O)cc[nH]c21,inactive: 1.03

# — the supplement of paper PMC9446081
